{"source": "paper PMC9911399", "about": "“Two distinct binding modes provide the RNA-binding protein RbFox with extraordinary sequence specificity”", "binders": {"B1": {"name": "CGACUUC (DNA:RNA)", "RNA": "GGGAGACCGGAAUUCAGAUUGUCCCGACUUCUUAAAUCCCGUCGUAGCCACCA", "DNA 1": "CAATCTGAATTCCGGTCTCCC", "DNA 2": "TGGTGGCTACGACGGGATT"}, "B2": {"name": "GAACUAA (DNA:RNA)", "RNA": "B1 RNA with C25G, G26A, U30A, C31A", "DNA 1": "CAATCTGAATTCCGGTCTCCC", "DNA 2": "TGGTGGCTACGACGGGATT"}, "B3": {"name": "AUCCAUC (DNA:RNA)", "RNA": "B1 RNA with C25A, G26U, A27C, U29A", "DNA 1": "CAATCTGAATTCCGGTCTCCC", "DNA 2": "TGGTGGCTACGACGGGATT"}, "B4": {"name": "CCAAGCA (DNA:RNA)", "RNA": "B1 RNA with G26C, C28A, U29G, U30C, C31A", "DNA 1": "CAATCTGAATTCCGGTCTCCC", "DNA 2": "TGGTGGCTACGACGGGATT"}, "B5": {"name": "UAAUUUG (DNA:RNA)", "RNA": "B1 RNA with C25U, G26A, C28U, C31G", "DNA 1": "CAATCTGAATTCCGGTCTCCC", "DNA 2": "TGGTGGCTACGACGGGATT"}, "B6": {"name": "AGGUAUG (DNA:RNA)", "RNA": "B1 RNA with C25A, A27G, C28U, U29A, C31G", "DNA 1": "CAATCTGAATTCCGGTCTCCC", "DNA 2": "TGGTGGCTACGACGGGATT"}, "B7": {"name": "UAAAAGG (DNA:RNA)", "RNA": "B1 RNA with C25U, G26A, C28A, U29A, U30G, C31G", "DNA 1": "CAATCTGAATTCCGGTCTCCC", "DNA 2": "TGGTGGCTACGACGGGATT"}, "B8": {"name": "AGCCACA (DNA:RNA)", "RNA": "B1 RNA with C25A, A27C, U29A, U30C, C31A", "DNA 1": "CAATCTGAATTCCGGTCTCCC", "DNA 2": "TGGTGGCTACGACGGGATT"}, "B9": {"name": "UUUGGUG (DNA:RNA)", "RNA": "B1 RNA with C25U, G26U, A27U, C28G, U29G, C31G", "DNA 1": "CAATCTGAATTCCGGTCTCCC", "DNA 2": "TGGTGGCTACGACGGGATT"}, "B10": {"name": "GUCAAGG (DNA:RNA)", "RNA": "GGGAGACCGGAAUUCAGAUUGUCCGUCAAGGUUAAAUCCCGUCGUAGCCACCA", "DNA 1": "CAATCTGAATTCCGGTCTCCC", "DNA 2": "TGGTGGCTACGACGGGATT"}, "B11": {"name": "AAACAUG (DNA:RNA)", "RNA": "B1 RNA with C25A, G26A, U29A, C31G", "DNA 1": "CAATCTGAATTCCGGTCTCCC", "DNA 2": "TGGTGGCTACGACGGGATT"}, "B12": {"name": "CAAUUCC (DNA:RNA)", "RNA": "B1 RNA with G26A, C28U, U30C", "DNA 1": "CAATCTGAATTCCGGTCTCCC", "DNA 2": "TGGTGGCTACGACGGGATT"}, "B13": {"name": "GUCAGAC (DNA:RNA)", "RNA": "B10 RNA with A29G, G30A, G31C", "DNA 1": "CAATCTGAATTCCGGTCTCCC", "DNA 2": "TGGTGGCTACGACGGGATT"}, "B14": {"name": "UCUUUUG (DNA:RNA)", "RNA": "B1 RNA with C25U, G26C, A27U, C28U, C31G", "DNA 1": "CAATCTGAATTCCGGTCTCCC", "DNA 2": "TGGTGGCTACGACGGGATT"}, "B15": {"name": "CGAUCCG (DNA:RNA)", "RNA": "B1 RNA with C28U, U29C, U30C, C31G", "DNA 1": "CAATCTGAATTCCGGTCTCCC", "DNA 2": "TGGTGGCTACGACGGGATT"}, "B16": {"name": "GACUAUU (DNA:RNA)", "RNA": "B10 RNA with U26A, A28U, G30U, G31U", "DNA 1": "CAATCTGAATTCCGGTCTCCC", "DNA 2": "TGGTGGCTACGACGGGATT"}, "B17": {"name": "UCGGUUU (DNA:RNA)", "RNA": "B1 RNA with C25U, G26C, A27G, C28G, C31U", "DNA 1": "CAATCTGAATTCCGGTCTCCC", "DNA 2": "TGGTGGCTACGACGGGATT"}, "B18": {"name": "ACAAUGG (DNA:RNA)", "RNA": "B10 RNA with G25A, U26C, C27A, A29U", "DNA 1": "CAATCTGAATTCCGGTCTCCC", "DNA 2": "TGGTGGCTACGACGGGATT"}, "B19": {"name": "GUCCGCG (DNA:RNA)", "RNA": "B10 RNA with A28C, A29G, G30C", "DNA 1": "CAATCTGAATTCCGGTCTCCC", "DNA 2": "TGGTGGCTACGACGGGATT"}, "B20": {"name": "AGCCUGU (DNA:RNA)", "RNA": "B1 RNA with C25A, A27C, U30G, C31U", "DNA 1": "CAATCTGAATTCCGGTCTCCC", "DNA 2": "TGGTGGCTACGACGGGATT"}, "B21": {"name": "UGAAUCC (DNA:RNA)", "RNA": "B1 RNA with C25U, C28A, U30C", "DNA 1": "CAATCTGAATTCCGGTCTCCC", "DNA 2": "TGGTGGCTACGACGGGATT"}, "B22": {"name": "AUCCACC (DNA:RNA)", "RNA": "B10 RNA with G25A, A28C, G30C, G31C", "DNA 1": "CAATCTGAATTCCGGTCTCCC", "DNA 2": "TGGTGGCTACGACGGGATT"}, "B23": {"name": "UCGCACG (DNA:RNA)", "RNA": "B10 RNA with G25U, U26C, C27G, A28C, G30C", "DNA 1": "CAATCTGAATTCCGGTCTCCC", "DNA 2": "TGGTGGCTACGACGGGATT"}, "B24": {"name": "CUCAAUU (DNA:RNA)", "RNA": "B10 RNA with G25C, G30U, G31U", "DNA 1": "CAATCTGAATTCCGGTCTCCC", "DNA 2": "TGGTGGCTACGACGGGATT"}, "B25": {"name": "CAUUAAA (DNA:RNA)", "RNA": "B1 RNA with G26A, A27U, C28U, U29A, U30A, C31A", "DNA 1": "CAATCTGAATTCCGGTCTCCC", "DNA 2": "TGGTGGCTACGACGGGATT"}, "B26": {"name": "GUUGUUA (DNA:RNA)", "RNA": "B1 RNA with C25G, G26U, A27U, C28G, C31A", "DNA 1": "CAATCTGAATTCCGGTCTCCC", "DNA 2": "TGGTGGCTACGACGGGATT"}, "B27": {"name": "AGCGCAA (DNA:RNA)", "RNA": "B1 RNA with C25A, A27C, C28G, U29C, U30A, C31A", "DNA 1": "CAATCTGAATTCCGGTCTCCC", "DNA 2": "TGGTGGCTACGACGGGATT"}, "B28": {"name": "GGUGAGA (DNA:RNA)", "RNA": "B10 RNA with U26G, C27U, A28G, G31A", "DNA 1": "CAATCTGAATTCCGGTCTCCC", "DNA 2": "TGGTGGCTACGACGGGATT"}, "B29": {"name": "CGAUCGG (DNA:RNA)", "RNA": "B1 RNA with C28U, U29C, U30G, C31G", "DNA 1": "CAATCTGAATTCCGGTCTCCC", "DNA 2": "TGGTGGCTACGACGGGATT"}, "B30": {"name": "UUCAGGC (DNA:RNA)", "RNA": "B10 RNA with G25U, A29G, G31C", "DNA 1": "CAATCTGAATTCCGGTCTCCC", "DNA 2": "TGGTGGCTACGACGGGATT"}, "B31": {"name": "CCUGUGC (DNA:RNA)", "RNA": "B1 RNA with G26C, A27U, C28G, U30G", "DNA 1": "CAATCTGAATTCCGGTCTCCC", "DNA 2": "TGGTGGCTACGACGGGATT"}}, "note": "Numbering of substitutions follows the chain as printed; changes in the protein carry UniProt numbers. The list shows a part of the results.", "data": [{"molecular_target": "T1, RBFOX1 RRM RbFoxmut (Fox-RRM*) (Homo sapiens, UniProt Q9NWB1 109-208, R118D;E147R;N151S;E152T)", "T1 sequence": "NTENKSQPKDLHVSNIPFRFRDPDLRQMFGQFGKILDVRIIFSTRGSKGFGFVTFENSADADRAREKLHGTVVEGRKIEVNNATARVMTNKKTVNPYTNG", "assay": "EMSA; HiTS-Eq, 1 nM pool, 10 min; buffer printed only for the single-RNA assays: 10 mM Tris pH 7.5, 150 mM NaCl, 3.4 mM EDTA, 0.001% NP-40, 30 C", "conditions": "tags: His6 N-terminal (pET28a); label: 5' 32P", "procedure,_shortened": "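Purified RbFox RRM, wild type or mutant, was incubated for 10 min in 50 µL with 1 nM of a 5′-radiolabelled RNA pool carrying 7 randomized nucleotides, whose flanks were annealed to DNA oligonucleotides, over a series of increasing protein concentrations. Unbound RNA was resolved on 8% native PAGE, cut out, reverse-transcribed, barcoded by PCR and sequenced on an Illumina HiSeq 2500. Relative association constants were derived from changes in read counts for each RNA species versus the control reaction and normalised to the cognate motif.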", "values": [{"binder": "B1", "binding signal": "0.0536 KA relative to UGCAUGU"}, {"binder": "B2", "binding signal": "0.0987 KA relative to UGCAUGU"}, {"binder": "B3", "binding signal": "0.1 KA relative to UGCAUGU"}, {"binder": "B4", "binding signal": "0.113 KA relative to UGCAUGU"}, {"binder": "B5", "binding signal": "0.0593 KA relative to UGCAUGU"}, {"binder": "B6", "binding signal": "1.01 KA relative to UGCAUGU"}, {"binder": "B7", "binding signal": "0.07 KA relative to UGCAUGU"}, {"binder": "B8", "binding signal": "0.0933 KA relative to UGCAUGU"}, {"binder": "B9", "binding signal": "0.136 KA relative to UGCAUGU"}, {"binder": "B10", "binding signal": "0.0815 KA relative to UGCAUGU"}, {"binder": "B11", "binding signal": "0.0957 KA relative to UGCAUGU"}, {"binder": "B12", "binding signal": "0.0801 KA relative to UGCAUGU"}, {"binder": "B13", "binding signal": "0.0721 KA relative to UGCAUGU"}, {"binder": "B14", "binding signal": "0.118 KA relative to UGCAUGU"}, {"binder": "B15", "binding signal": "0.0617 KA relative to UGCAUGU"}, {"binder": "B16", "binding signal": "0.0993 KA relative to UGCAUGU"}, {"binder": "B17", "binding signal": "0.0927 KA relative to UGCAUGU"}, {"binder": "B18", "binding signal": "0.0841 KA relative to UGCAUGU"}, {"binder": "B19", "binding signal": "0.0851 KA relative to UGCAUGU"}, {"binder": "B20", "binding signal": "0.118 KA relative to UGCAUGU"}, {"binder": "B21", "binding signal": "0.172 KA relative to UGCAUGU"}, {"binder": "B22", "binding signal": "0.0787 KA relative to UGCAUGU"}, {"binder": "B23", "binding signal": "0.272 KA relative to UGCAUGU"}, {"binder": "B24", "binding signal": "0.0583 KA relative to UGCAUGU"}, {"binder": "B25", "binding signal": "0.134 KA relative to UGCAUGU"}, {"binder": "B26", "binding signal": "0.153 KA relative to UGCAUGU"}, {"binder": "B27", "binding signal": "0.0674 KA relative to UGCAUGU"}, {"binder": "B28", "binding signal": "0.084 KA relative to UGCAUGU"}, {"binder": "B29", "binding signal": "0.102 KA relative to UGCAUGU"}, {"binder": "B30", "binding signal": "0.0937 KA relative to UGCAUGU"}, {"binder": "B31", "binding signal": "0.135 KA relative to UGCAUGU"}]}]}
